Results taken from the supplement of paper PMC4967469.
By IC50 is meant the dose at which the fit gives 50% viability; fits outside the tested doses are given as limits. AUC, from the same fit, is the share of area under the viability curve across the 256-fold dose range; it is 1 without any effect and falls as sensitivity rises. For some of these results: A top dose marked as inferred comes from the curve model; the source does not state it. For some of these results: Where an entry number is given, a second screen of the drug exists; the two often differ.

Key:
Test in all cases: Viability of human cancer cell lines after 72 h of drug (GDSC screen)
JNK-9L = compound: Fc1cc(-c2ccnc(Nc3ccc(-n4cnc(N5CCOCC5)n4)cc3)n2)cc(N2CCOCC2)c1 [JNK-9L]; details: top dose 5.12 µM; top dose inferred
Procedure: (§1)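 Human cancer cell lines in 384-well plates, medium with 10% serum, drug for 72 h over a 256-fold dose range (nine 2-fold or five 4-fold steps up to the top dose). Adherent lines were fixed and stained with the nucleic acid dye Syto60, suspension lines read with resazurin; signal relative to control wells, capped at 0 and 100%. One two-parameter sigmoid per drug and line, fitted in a mixed model over all curves with the slope shared within a line.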

CUDC-101 = compound: C#Cc1cccc(Nc2ncnc3cc(OC)c(OCCCCCCC(=O)NO)cc23)c1 [CUDC-101]; details: top dose 5.12 µM; top dose inferred
Procedure: as §1

RDEA119 = compound: COc1cc(F)c(F)c(Nc2ccc(I)cc2F)c1NS(=O)(=O)C1(C[C@H](O)CO)CC1 [RDEA119]; details: top dose 5 µM, top dose inferred
Procedure: as §1

5-Fluorouracil = compound: O=c1[nH]cc(F)c(=O)[nH]1 [5-Fluorouracil]; details: top dose 32 µM; top dose inferred
Procedure: as §1

QS11 = compound: OC[C@H](Cc1ccccc1)Nc1nc(Oc2ccc3c(c2)CCC3)nc2c1ncn2Cc1ccc(-c2ccccc2)cc1 [QS11]; details: top dose 10.24 µM
Procedure: as §1

AC220 = compound: CC(C)(C)c1cc(NC(=O)Nc2ccc(-c3cn4c(n3)sc3cc(OCCN5CCOCC5)ccc34)cc2)no1 [AC220]; details: top dose 1.024 µM; top dose inferred
Procedure: as §1

OSU-03012 = compound: NCC(=O)Nc1ccc(-n2nc(C(F)(F)F)cc2-c2ccc3c(ccc4ccccc43)c2)cc1 [OSU-03012]; details: top dose 16 µM; top dose inferred
Procedure: as §1

| Cell Line | AUC (JNK-9L) | IC50 (JNK-9L) | AUC (CUDC-101) | IC50 (CUDC-101) | AUC (RDEA119; screen: GDSC drug entry 1014) | IC50 (RDEA119; screen: GDSC drug entry 1014) | AUC (RDEA119; screen: GDSC drug entry 1526) | IC50 (RDEA119; screen: GDSC drug entry 1526) | AUC (5-Fluorouracil) | IC50 (5-Fluorouracil) | AUC (QS11) | IC50 (QS11) | AUC (AC220) | IC50 (AC220) | AUC (OSU-03012) | IC50 (OSU-03012) |
| --- | --- | --- | --- | --- | --- | --- | --- | --- | --- | --- | --- | --- | --- | --- | --- | --- |
| RH-41 (rhabdomyosarcoma, adherent) | 0.626 | 0.667 µM | 0.847 | 2.89 µM | 0.992 | > 5 µM | 0.958 | > 5 µM | 0.907 | 31.3 µM | 0.946 | > 10.2 µM | 0.992 | > 1.02 µM | 0.808 | 6.66 µM |
| RKN (ovary, adherent) | 0.65 | 0.857 µM | 0.694 | 1.16 µM | 0.772 | 2.04 µM | 0.414 | 0.179 µM | 0.96 | > 32 µM | 0.896 | > 10.2 µM | 0.983 | > 1.02 µM | 0.851 | 13.3 µM |
| RKO (large intestine, adherent) | 0.312 | 0.0997 µM | 0.522 | 0.365 µM | 0.729 | 1.32 µM | 0.749 | 1.52 µM | 0.592 | 3.51 µM | 0.777 | 3.81 µM | 0.974 | > 1.02 µM | 0.46 | 0.786 µM |
| RL (B-cell lymphoma, suspension) | 0.78 | 1.93 µM | 0.318 | 0.104 µM | 0.99 | > 5 µM | 0.976 | > 5 µM | 0.831 | 18 µM | 0.979 | > 10.2 µM | 0.99 | > 1.02 µM | 0.828 | 8.76 µM |
| RMG-I (ovary, adherent) | 0.666 | 1.01 µM | 0.388 | 0.149 µM |  |  | 0.608 | 0.652 µM | 0.918 | > 32 µM | 0.941 | > 10.2 µM | 0.98 | > 1.02 µM | 0.745 | 5.77 µM |
| RO82-W-1 (thyroid, adherent) | 0.821 | 4.09 µM | 0.576 | 0.546 µM | 0.925 | > 5 µM | 0.802 | 3.3 µM | 0.967 | > 32 µM | 0.952 | > 10.2 µM | 0.982 | > 1.02 µM | 0.872 | > 16 µM |
| ROS-50 (B-cell leukaemia, suspension) | 0.704 | 1.43 µM | 0.708 | 1.47 µM | 0.985 | > 5 µM | 0.982 | > 5 µM | 0.857 | > 32 µM | 0.96 | > 10.2 µM | 0.979 | > 1.02 µM | 0.918 | > 16 µM |
| RPMI-2650 (head and neck, adherent) | 0.421 | 0.191 µM | 0.45 | 0.231 µM | 0.894 | > 5 µM | 0.974 | > 5 µM | 0.836 | 23.8 µM | 0.9 | > 10.2 µM | 0.973 | > 1.02 µM | 0.578 | 1.67 µM |
| RPMI-6666 (Hodgkin lymphoma, suspension) | 0.459 | 0.242 µM | 0.287 | 0.0702 µM | 0.922 | > 5 µM | 0.929 | > 5 µM | 0.335 | 0.631 µM | 0.966 | > 10.2 µM | 0.921 | > 1.02 µM | 0.711 | 4.52 µM |
| RPMI-7951 (melanoma, adherent) | 0.625 | 0.699 µM | 0.48 | 0.283 µM | 0.634 | 0.723 µM |  |  | 0.86 | 25.6 µM | 0.609 | 1.27 µM | 0.96 | > 1.02 µM | 0.786 | 6.69 µM |
| RPMI-8226 (myeloma, suspension) | 0.696 | 1.05 µM | 0.579 | 0.511 µM | 0.799 | 2.04 µM | 0.868 | 3.6 µM | 0.374 | 0.946 µM | 0.852 | 6.38 µM | 0.975 | > 1.02 µM | 0.77 | 5.32 µM |
| RPMI-8402 (T-cell lymphoblastic leukaemia, suspension) | 0.55 | 0.427 µM | 0.175 | 0.0421 µM | 0.991 | > 5 µM | 0.977 | > 5 µM | 0.628 | 4.23 µM | 0.929 | > 10.2 µM | 0.94 | > 1.02 µM | 0.637 | 2.24 µM |
| RPMI-8866 (chronic myeloid leukaemia, suspension) | 0.673 | 0.933 µM | 0.318 | 0.104 µM | 0.889 | 4.99 µM | 0.964 | > 5 µM | 0.47 | 1.67 µM | 0.968 | > 10.2 µM | 0.988 | > 1.02 µM | 0.783 | 6.22 µM |
| RT4 (bladder, adherent) | 0.735 | 1.56 µM | 0.446 | 0.226 µM | 0.944 | > 5 µM | 0.929 | > 5 µM | 0.831 | 21.8 µM | 0.987 | > 10.2 µM | 0.965 | > 1.02 µM | 0.862 | 14.9 µM |
| RT-112 (bladder, adherent) | 0.541 | 0.417 µM | 0.537 | 0.406 µM |  |  | 0.772 | 2.07 µM | 0.763 | 12.4 µM | 0.828 | 6.99 µM | 0.979 | > 1.02 µM | 0.547 | 1.35 µM |
| RVH-421 (melanoma, adherent) | 0.491 | 0.299 µM | 0.822 | 4.57 µM | 0.377 | 0.126 µM | 0.623 | 0.771 µM | 0.776 | 17.8 µM | 0.96 | > 10.2 µM | 0.936 | > 1.02 µM | 0.834 | > 16 µM |
| RXF393 (kidney, adherent) | 0.311 | 0.076 µM | 0.437 | 0.202 µM | 0.673 | 1.16 µM | 0.702 |  | 0.93 | > 32 µM | 0.976 | > 10.2 µM | 0.933 | > 1.02 µM | 0.771 | 8.61 µM |
